Source: the supplement of paper PMC12217912
The list shows a part of the results. The full chains were built here from the parent and the listed change. Inactive controls read about 0.05.

B1: TEV protease; numbered along this chain (parent)
chain: MGESLFKGPRDYNPISSSICHLTNESDGHTTSLYGIGFGPFIITNKHLFRRNNGTLVVQSLHGVFKVKDTTTLQQHLVDGRDMIIIRMPKDFPPFPQKLKFREPQREERICLVTTNFQTKSMSSMVSDTSCTFPSGDGIFWKHWIQTKDGQCGSPLVSTRDGFIVGIHSASNFTNTNNYFTSVPKNFMELLTNQEAQQWVSGWRLNADSVLWGGHKVFMVKPEEPFQPVKEATQL

Variants of: B1
Assay: raw area under fraction-flipped curve 0-4 h after induction (AUC4h, not background-subtracted), DNA-recorder readout of cleavage of the substrate (dimensionless); higher = more cleavage of the substrate by the protease variant
Conditions: temperature: 34 °C; time window: 0-4 h after rhamnose induction
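Further: Bxb1 expression induced with 0.2% (w/v) L-rhamnose at OD600 near 0.5, cultures sampled hourly, flipped fraction per protease–substrate barcode pair counted by paired-end Illumina sequencing.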

Variant	area with substrate ENLCFQS	area with substrate ENLDFQS	area with substrate ENLEFQS	area with substrate ENLFFQS	area with substrate ENLGFQS	area with substrate ENLHFQS	area with substrate ENLIFQS	area with substrate ENLKFQS	area with substrate ENLLFQS	area with substrate ENLMFQS	area with substrate ENLNFQS	area with substrate ENLPFQS	area with substrate ENLQFQS	area with substrate ENLRFQS	area with substrate ENLSFQS	area with substrate ENLTFQS	area with substrate ENLWFQS	area with substrate ENLVFQS
MGESLFKGPRDYNPISSSICHLTNESDGHTTSLYGIGFGPFIITNKHLFRRNNGTLVVQSLHGVFKVKDTTTLQQHLVDGRDMIIIRMPKDFPPFPQKLKFREPQREERICLVTTNFQTKSMSSMVSDTSCTFPSGDGIFWKHWIQTKDGQCGSPLVSTRDGFIVGIWSASNFTNTNNYFTSVPKNFMELLTNQEAQQWVSGWRLNADSVLWGGHKVFMVKPEEPFQPVKEATQL [H168W]	0.0673	0.0606	0.0628	0.0856	0.0725	0.063	0.0548	0.062	0.0693	0.0576	0.0636	0.0546	0.0628	0.0389	0.0582	0.062	0.0615	
MGESLFKGPRDYNPISSSICHLTNESDGHTTSLYGIGFGPFIITNKHLFRRNNGTLVVQSLHGVFKVKDTTTLQQHLVDGRDMIIIRMPKDFPPFPQKLKFREPQREERICLVTTNFQTKSMSSMVSDTSCTFPSGDGIFWKHWIQTKDGQCGSPLVSTRDGFIVGIHSAENFTNTNNYFTSVPKNFMELLTNQEAQQWVSGWRLNADSVLWGGHKVFMVKPEEPFQPVKEATQL [S171E]	0.0565			0.0231								0.0607	0.0618	0.0427				0.061
MGESLFKGPRDYNPISSSICHLTNESDGHTTSLYGIGFGPFIITNKHLFRRNNGTLVVQSLHGVFKVKDTTTLQQHLVDGRDMIIIRMPKDFPPFPQKLKFREPQREERICLVTTNFQTKSMSSMVSDTSCTFPSGDGIFWKHWIQTKDGQCGSPLVSTRDGFIVGIHSASNFTNTHNYFTSVPKNFMELLTNQEAQQWVSGWRLNADSVLWGGHKVFMVKPEEPFQPVKEATQL [N177H]	0.0807	0.0626	0.0409	0.0663		0.0668		0.0758			0.0553	0.0642	0.061		0.0584		0.0407	
MGESLFKGPRDYNPISSSICHLTNESDGHTTSLYGIGFGPFIITNKHLFRRNNGTLVVQSLHGVFKVKDTTTLQQHLVDGRDMIIIRMPKDFPPFPQKLKFREPQREERICLVTTNFQTKSMSSMVSDTSCTFPSGDGIFWKHWIQTKDGQCGSPLVSTRDGFIVGIHSASNFTNTNNYFTSTPKNFMELLTNQEAQQWVSGWRLNADSVLWGGHKVFMVKPEEPFQPVKEATQL [V183T]	0.0795	0.0523	0.0614	0.0594	0.0553	0.103	0.0791	0.0789			0.0623	0.0732		0.0585	0.054		0.0643	
MGESLFKGPRDYNPISSSICHLTNESDGHTTSLYGIGFGPFIITNKHLFRRNNGTLVVQSLHGVFKVKDTTTLQQHLVDGRDMIIIRMPKDFPPFPQKLKFREPQREERICLVTTNFQTKSMSSMVSDTSCTFPSGDGIFWKHWIQTKDGQCGSPLVSTRDGFIVGIHSASNFTNTNNYFTSVPKNIMELLTNQEAQQWVSGWRLNADSVLWGGHKVFMVKPEEPFQPVKEATQL [F187I]	0.0747	0.0635		0.0774	0.0657		0.0832	0.0953	0.0778		0.072	0.0455		0.0756	0.0774			0.0812
MGESLFKGPRDYNPISSSICHLTNESDGHTTSLYGIGFGPFIITNKHLFRRNNGTLVVQSLHGVFKVKDTTTLQQHLVDGRDMIIIRMPKDFPPFPQKLKFREPQREERICLVTTNFQTKSMSSMVSDTSCTFPSGDGIFWKHWIQTKDGQCGSPLVSTRDGFIVGIHSASNFTNTNNYFTSVPKNFMELLTNQEAQIWVSGWRLNADSVLWGGHKVFMVKPEEPFQPVKEATQL [Q198I]	0.0758	0.0628	0.0731	0.0751	0.0455	0.0623		0.0724	0.0815		0.0747	0.0651	0.0688	0.0773	0.054	0.0901		0.0685
MGESLFKGPRDYNPISSSICHLTNESDGHTTSLYGIGFGPFIITNKHLFRRNNGTLVVQSLHGVFKVKDTTTLQQHLVDGRDMIIIRMPKDFPPFPQKLKFREPQREERICLVTTNFQTKSMSSMVSDTSCTFPSGDGIFWKHWIQTKDGQCGSPLVSTRDGFIVGIHSASNFTNTNNYFTSVPKNFMELLTNQEAQQHVSGWRLNADSVLWGGHKVFMVKPEEPFQPVKEATQL [W199H]	0.0668	0.0482	0.0618	0.0642		0.0633	0.0547		0.0685	0.0619				0.0715			0.0622	
MGESLFKGPRDYNPISSSICHLTNESDGHTTSLYGIGFGPFIITNKHLFRRNNGTLVVQSLHGVFKVKDTTTLQQHLVDGRDMIIIRMPKDFPPFPQKLKFREPQREERICLVTTNFQTKSMSSMVSDTSCTFPSGDGIFWKHWIQTKDGQCGSPLVSTRDGFIVGIHSASNFTNTNNYFTSVPKNFMELLTNQEAQQWVSGWRLHADSVLWGGHKVFMVKPEEPFQPVKEATQL [N206H]	0.0728	0.0578	0.0482	0.0736	0.059	0.0652	0.0844				0.0457	0.0515	0.0817		0.064		0.0592	
MGESLFKGPRDYNPISSSICHLTNESDGHTTSLYGIGFGPFIITNKHLFRRNNGTLVVQSLHGVFKVKDTTTLQQHLVDGRDMIIIRMPKDFPPFPQKLKFREPQREERICLVTTNFQTKSMSSMVSDTSCTFPSGDGIFWKHWIQTKDGQCGSPLVSTRDGFIVGIHSASNFTNTNNYFTSVPKNFMELLTNQEAQQWVSGWRLNADSVLWGGHKQFMVKPEEPFQPVKEATQL [V217Q]	0.0503	0.0722		0.0498		0.0605	0.0714	0.0598	0.0601		0.0565	0.0476	0.0619	0.0628	0.0456			0.0581
MGESLFKGPRDYNPISSSICHLTNESDGHTTSLYGIGFGPFIITNKHLFRRNNGTLVVQSLHGVFKVKDTTTLQQHLVDGRDMIIIRMPKDFPPFPQKLKFREPQREERICLVTTNFQTKSMSSMVSDTSCTFPSGDGIFWKHWIQTKDGQCGSPLVSTRDGFIVGIHSASNFTNTNNYFTSVPKNFMELLTNQEAQQWVSGWRLNADSVLWGGHKVFEVKPEEPFQPVKEATQL [M219E]	0.0803	0.0696	0.0628	0.0666		0.103		0.0615	0.0582	0.0902	0.0713	0.0643		0.0151	0.0606		0.0669	0.0623
MGESLFKGPRDYNPISSSICHLTNESDGHTTSLYGIGFGPFIITNKHLFRRNNGTLVVQSLHGVFKVKDTTTLQQHLVDGRDMIIIRMPKDFPPFPQKLKFREPQREERICLVTTNFQTKSMSSMVSDTSCTFPSGDGIFWKHWIQTKDGQCGSPLVSTRDGFIVGIHSASNFTNTNNYFTSVPKNFMELLTNQEAQQWVSGWRLNADSVLWGGHKVFMVIPEEPFQPVKEATQL [K221I]	0.0632	0.0721	0.0679	0.072	0.0693	0.0485	0.0718	0.09	0.0617	0.0717	0.0693	0.0711	0.0555	0.0692	0.0496	0.0566	0.0426	0.0912
MGESLFKGPRDYNPISSSICHLTNESDGHTTSLYGIGFGPFIITNKHLFRRNNGTLVVQSLHGVFKVKDTTTLQQHLVDGRDMIIIRMPKDFPPFPQKLKFREPQREERICLVTTNFQTKSMSSMVSDTSCTFPSGDGIFWKHWIQTKDGQCGSPLVSTRDGFIVGIHSASNFTNTNNYFTSVPKNFMELLTNQEAQQWVSGWRLNADSVLWGGHKVFMVQPEEPFQPVKEATQL [K221Q]	0.0815	0.0846		0.0721		0.0506		0.0703			0.0598	0.0626		0.0812	0.0676			
MGESLFKGPRDYNPISSSICHLTNESDGHTTSLYGIGFGPFIITNKHLFRRNNGTLVVQSLHGVFKVKDTTTLQQHLVDGRDMIIIRMPKDFPPFPQKLKFREPQREERICLVTTNFQTKSMSSMVSDTSCTFPSGDGIFWKHWIQTKDGQCGSPLVSTRDGFIVGIHSASNFTNTNNYFTSVPKNFMELLTNQEAQQWVSGWRLNADSVLWGGHKVFMVKPEFPFQPVKEATQL [E224F]	0.0697	0.0539	0.0638			0.0671	0.104	0.0724					0.066	0.0638				0.0663
MGESLFKGPRDYNPISSSICHLTNESDGHTTSLYGIGFGPFIITNKHLFRRNNGTLVVQSLHGVFKVKDTTTLQQHLVDGRDMIIIRMPKDFPPFPQKLKFREPQREERICLVTTNFQTKSMSSMVSDTSCTFPSGDGIFWKHWIQTKDGQCGSPLVSTRDGFIVGIHSASNFTNTNNYFTSVPKNFMELLTNQEAQQWVSGWRLNADSVLWGGHKVFMVKPEEPFQPVKTATQL [E231T]	0.0684	0.0669	0.0588	0.105	0.0729	0.0639		0.0822			0.0588	0.0732	0.0683	0.0551		0.0752		0.0578
MGESLFKGPRDYNPISSSICHLTNESDGHTTSLYGIGFGPFIITNKHLFRRNNGTLVVQSLHGVFKVKDTTTLQQHLVDGRDMIIIRMPKDFPPFPQKLKFREPQREERICLVTTNFQTKSMSSMVSDTSCTFPSGDGIFWKHWIQTKDGQCGSPLVSTRDGFIVGIHSASNFTNTNNYFTSVPKNFMELLTNQEAQQWVSGWRLNADSVLWGGHKVFMVKPEEPFQPVKEAGQL [T233G]	0.0866	0.0651	0.0733		0.0483	0.0882					0.054	0.0619			0.0649		0.0755	
MGESLFKGPRSYNPISSSICHLTNESDGHTTSLYGIGFGPFIITNKHLFRRNNGTLVVQSLHGVFKVKDTTTLQQHLVDGRDMIIIRMPKDFPPFPQKLKFREPQREERICLVTTNFQTKSMSSMVSDTSCTFPSGDGIFWKHWIQTKDGQCGSPLVSTRDGFIVGIHSASNFTNTNNYFTSVPKNFMELLTNQEAQQWVSGWRLNADSVLWGGHKVFMVKPEEPFQPVKEATQL [D11S]		0.0663	0.0682	0.0808		0.0672	0.0884	0.0808	0.0856	0.0783	0.0758	0.0603	0.0681	0.083	0.0588		0.0639	0.126
MGESLFKGPRDYNPISSKICHLTNESDGHTTSLYGIGFGPFIITNKHLFRRNNGTLVVQSLHGVFKVKDTTTLQQHLVDGRDMIIIRMPKDFPPFPQKLKFREPQREERICLVTTNFQTKSMSSMVSDTSCTFPSGDGIFWKHWIQTKDGQCGSPLVSTRDGFIVGIHSASNFTNTNNYFTSVPKNFMELLTNQEAQQWVSGWRLNADSVLWGGHKVFMVKPEEPFQPVKEATQL [S18K]		0.0378	0.0556	0.0994	0.0546	0.074		0.0667	0.0451		0.0578	0.0708	0.0672	0.0534	0.0502		0.0535	0.087
MGESLFKGPRDYNPISSSICHWTNESDGHTTSLYGIGFGPFIITNKHLFRRNNGTLVVQSLHGVFKVKDTTTLQQHLVDGRDMIIIRMPKDFPPFPQKLKFREPQREERICLVTTNFQTKSMSSMVSDTSCTFPSGDGIFWKHWIQTKDGQCGSPLVSTRDGFIVGIHSASNFTNTNNYFTSVPKNFMELLTNQEAQQWVSGWRLNADSVLWGGHKVFMVKPEEPFQPVKEATQL [L22W]		0.0466	0.0552	0.0533		0.051	0.0527	0.036			0.0533	0.0359		0.0457	0.0398			
MGESLFKGPRDYNPISSSICHLTNESDGHTTSLYGDGFGPFIITNKHLFRRNNGTLVVQSLHGVFKVKDTTTLQQHLVDGRDMIIIRMPKDFPPFPQKLKFREPQREERICLVTTNFQTKSMSSMVSDTSCTFPSGDGIFWKHWIQTKDGQCGSPLVSTRDGFIVGIHSASNFTNTNNYFTSVPKNFMELLTNQEAQQWVSGWRLNADSVLWGGHKVFMVKPEEPFQPVKEATQL [I36D]		0.0339	0.0448	0.0453	0.046	0.0419	0.0194	0.0477	0.0404		0.0527	0.042	0.0525	0.0355	0.0379		0.0518	0.0462
